Results from PubChem BioAssay AID624296 (National Center for Advancing Translational Sciences (NCATS), 2012).
Screen size: about 350,000 compounds; about 9,900 (2.8%) were called active. The inconclusive results got no clear call from the source; some entries with a clear call stand among them for comparison. Calls follow the shape of the dose curve; as a rule, active = well fitted activation curve with a large enough effect; inconclusive = small, poorly fitted or top-dose-only effect; inactive = no such curve, though single readings can be large or run the other way. No potency is given beside an inconclusive call; the fits are too rough.

Assay: A quantitative high throughput screen for small molecules that induce DNA re-replication in MCF 10a normal breast cells. Also: nearly all actives have a fitted effect of over 50% in size. As to activity, positive = re-replication: % of control where 0% means no effect.
Details: MCF 10A DNA re-replication, Hoechst nuclear intensity, 48 h; activity, positive = re-replication: at 46.1 µM (top of the series)
Potency is read from the fitted curve at half-maximal effect; tags tell the direction and shape of the fitted curve.

Compound	activity, positive = re-replication	Potency
CCN1C(=O)c2cccc3c(NC(=O)c4ccccc4)ccc1c23	inactive: -0.196%	–
COc1ccc(N2CC(C(=O)Nc3cc(C(F)(F)F)ccc3N3CCCC3)CC2=O)c(OC)c1 (stereo not drawn)	–	inconclusive [activator, single point]
O=C(NC(=S)Nc1ccccc1N1CCCC1)c1ccc(F)cc1	–	inconclusive [activator, partial curve, poor fit]
CCOc1cc(C(=O)Nc2ccc(S(=O)(=O)Nc3cnc4ccccc4n3)cc2)cc(OCC)c1OCC	–	inconclusive [activator, single point]
CCSc1nnc(NC(=O)CSc2nnc(Cc3cccn3C)n2-c2ccc(F)cc2)s1	–	inconclusive [activator, partial curve, poor fit]
COCCC(=O)N1CCC(Oc2ccc(C(=O)N3CCCCC3COC)cc2)CC1 (stereo not drawn)	inactive: 2.69%	–
CCCCCNC(=O)c1ccc2c(=O)[nH]c3c(C(=O)NCC4CCCO4)sc(=S)n3c2c1 (stereo not drawn)	–	inconclusive [activator, partial curve, poor fit]
Cc1ccc(CNCc2cccnc2)s1	–	inconclusive [activator, single point]
Cn1c(OCc2ccc3c(c2)OCO3)nc2c1c(=O)n(Cc1cccc(Cl)c1)c(=O)n2C	inactive: 3.97%	–
COc1ccc(-c2nc3ccccc3c(=O)n2CC(C)C)cc1	inactive: -8.95%	–
CCOC(=O)/C=C(\C)Sc1cc(=O)oc2ccccc12	–	inconclusive [activator, single point]
CCOC(=O)c1sc(C)c(C(N)=O)c1NC1=NCCCCC1	–	inconclusive [activator, partial curve, poor fit]
Cc1ccc(C)c(N2CCN(C(=O)c3ccc(CS(=O)(=O)c4ccccc4C)o3)CC2)c1	–	inconclusive [activator, partial curve]
OC(COCCC12CC3CC(CC(C3)C1)C2)CN1CCCC1 (stereo not drawn)	–	inconclusive [activator, partial curve, poor fit]
C=C(C)COc1ccc(-c2n[nH]c(C)c2Oc2ccccc2OC)c(O)c1	–	inconclusive [activator, partial curve, poor fit]
CCCC(=O)Nc1nnc(S(=O)(=O)N(CC)c2ccc(OC)cc2)s1	inactive: 1.69%	–
CC(C)(C)c1ccc(OCC(=O)NCc2ccco2)c(Br)c1	–	inconclusive [activator, single point]
COC(=O)C1=C(C)OC(N)=C(C#N)C1c1ccc(OC)c(CSc2ccccn2)c1 (stereo not drawn)	–	inconclusive [activator, single point]
CCN(CC)CCNC(=O)c1ccc(NC(=O)Cc2ccsc2)cc1	–	inconclusive [activator, single point]
O=C(O)c1cccc(CN2C(=O)S/C(=C/c3ccccc3[N+](=O)[O-])C2=O)c1	–	inconclusive [activator, single point]
N#Cc1ccc(COC(=O)CN2C(=O)NC3(CCCC3)C2=O)cc1	inactive: -0.698%	–
COc1ccccc1/C=C\C(=O)NCC(=O)N/N=C/c1cccc(OC)c1O	inactive: 3.25%	–
COc1ccc(-n2ncc3c(N4CCN(Cc5ccccc5)CC4)ncnc32)cc1	–	active: 20.6 µM

Compound	activity, positive = re-replication	Potency
COC(=O)CSc1nc(NCc2ccccc2)nc(N(C)C)n1	–	inconclusive [activator, single point]
COc1cc(C2CC(=O)Oc3c(C(CCN4CCCC(C)C4)c4ccc(N(C)C)cc4)c(OC)cc(OC)c32)cc(OC)c1OC (stereo not drawn)	inactive: -6.81%	–
Cc1ccc(C(=O)Nc2c(N)nc(SCC(=O)Nc3cc(C)on3)[nH]c2=O)cc1	–	inconclusive [activator, single point]
Nc1nonc1-n1nnc(C(=O)N/N=C/c2ccc(Cl)cc2Cl)c1CN1CCCCC1	–	inconclusive [activator, single point]
COc1cccc(C(=O)Oc2ccc3ccc(O)cc3c2)c1	–	inconclusive [activator, single point]
CN(C)c1ccc(C(CNS(=O)(=O)c2ccc(F)c(F)c2)c2c[nH]c3ccccc23)cc1 (stereo not drawn)	–	inconclusive [activator, single point]
CN1CCN(C(=O)CCN2C(=O)/C(=C/c3ccccc3Cl)SC2=S)CC1	–	active: 5.8 µM
O=C1N/C(=N/S(=O)(=O)c2ccccc2)S/C1=C/c1cccnc1	–	inconclusive [activator, single point]
Cc1csc2nc(CSc3nc4ccccc4o3)c(Br)n12	–	inconclusive [activator, single point]
Cc1cc(Nc2ccccc2)n(-c2nc3ccccc3[nH]2)n1	–	inconclusive [activator, single point]
C[C@@H](NC(=O)c1nc[nH]c1C(=O)N1CCc2ccccc2C1)c1ccccc1	–	inconclusive [activator, partial curve, poor fit]
COc1ccccc1N1CCN(C(=O)C2CCCO2)CC1 (stereo not drawn)	–	inconclusive [activator, full curve, poor fit]
Cc1cccc(C)c1NC(=O)Nc1ccc(S(N)(=O)=O)cc1	inactive: -2.28%	–
CCOC(=O)C1=CC[C@@H](c2cc3cc(OC)ccc3n2C)N(S(=O)(=O)c2ccc(C)cc2)[C@H]1C(=O)OCC	–	inconclusive [activator, single point]
COc1cc(SC)ccc1C(=O)NCc1ccccc1	inactive: 2.89%	–
COc1ccc(C(CNC(=O)c2[nH]c(C)c(C(C)=O)c2C)N2CCOCC2)cc1 (stereo not drawn)	inactive: 21.3%	–
CCS(=O)(=O)N1CCC(C(=O)NCc2ccccc2OC)CC1	–	inconclusive [activator, single point]
O=C(NC1CCOc2ccccc21)c1ccccn1 (stereo not drawn)	inactive: -14.5%	–
COC(=O)c1cnc(NNC(=O)c2ccc([N+](=O)[O-])cc2)nc1C(F)(F)F	–	inconclusive [activator, full curve, poor fit]
O=C(CC1c2ccccc2Oc2ccccc21)Nc1ccccc1F	–	inconclusive [activator, single point]
COc1ccc(NC(=O)CC(C)c2ccccc2)c([N+](=O)[O-])c1 (stereo not drawn)	–	inconclusive [activator, single point]
COc1ccc(C2NN=C(c3ccc(C)cc3)S2)cc1OC (stereo not drawn)	–	inconclusive [activator, single point]
COc1ccc2nc(C)cc(N/N=C/c3ccccc3)c2c1	–	active: 23.1 µM

Compound	activity, positive = re-replication	Potency
NCC(O)(c1ccc(Cl)cc1)c1ccc(Cl)cc1	–	inconclusive [activator, single point]
Cc1ccc(N=Nc2c(N)nn3c(N)c(C#N)c(C)nc23)cc1	–	inconclusive [activator, partial curve, poor fit]
COc1cccc(C(N)=O)c1OC(=O)Cc1ccccc1F	–	inconclusive [activator, single point]
COc1cc(C(=O)OCC(=O)NC2CCCCC2)cc2c1OCCO2	inactive: 1.6%	–
COc1cccc(NC(=O)COC(=O)c2c(C)nn(-c3ccccc3)c2C)c1	–	inconclusive [activator, full curve, poor fit]
O=c1oc(-c2ccco2)nc2c1cnn2-c1ccccc1	–	inconclusive [activator, single point]
CCCN1C(=O)/C(=C/c2ccc(N3CCOCC3)cc2)NC1=S	inactive: 15.3%	–
O=C(/C=C/c1ccccc1Cl)N(Cc1cccs1)C1CCS(=O)(=O)C1 (stereo not drawn)	–	inconclusive [activator, single point]
CCN(CC)Cc1nc2c(c(=O)[nH]1)C1(CCCCC1)Cc1ccccc1-2	–	active: 5.8 µM
O=C(N/C(=N\O)c1ccccc1)Nc1ccc(Cl)cc1	–	inconclusive [activator, full curve]
Cc1nn(CCCC(=O)Nc2sc3c(c2C#N)CCC3)c(C)c1[N+](=O)[O-]	inactive: 16.3%	–
Cc1cccc(OCCn2c(-c3ccco3)nc3ccccc32)c1	inactive: 252% [at 0.0737 µM]	–
N#Cc1ccc(CN2CCN(C(=O)CC(NC(=O)c3ccccc3)c3ccccc3)CC2)cc1 (stereo not drawn)	inactive: 9.77%	–
CCOC(=O)N1CCN(S(=O)(=O)c2ccc(C(=O)N(CCCN(C)C)c3nc4c(F)cc(F)cc4s3)cc2)CC1	–	inconclusive [activator, partial curve, poor fit]
Cc1ccc2nc(SCC(=O)Nc3cccnc3Cl)[nH]c2c1	–	inconclusive [activator, partial curve, poor fit]
COc1cccc(/C=N/n2c(C)nc3ccccc3c2=O)c1O	–	inconclusive [activator, single point]
CCN1CCN(c2ccc(S(=O)(=O)N3CCCCC3)cc2NC(=O)/C=C/c2cc(OC)ccc2OC)CC1	–	active: 20.6 µM
COc1ccccc1N(C)S(=O)(=O)c1ccc(C(=O)Nc2cccc(S(=O)(=O)N3CCOCC3)c2)cc1	–	inconclusive [activator, partial curve, poor fit]
COc1cc(CCN2C(=O)c3cccc4cccc(c34)C2=O)c(S(=O)(=O)NCCO)cc1OC	–	inconclusive [activator, partial curve, poor fit]
CCC1CCCCN1S(=O)(=O)c1ccc2c(c1)CCN2C(=O)C1CCC1 (stereo not drawn)	inactive: 4.15%	–
CCCC(c1nnnn1CC1CCCO1)N1CCN(c2ccccc2)CC1 (stereo not drawn)	inactive: 4.09%	–
Cc1nnc(N)s1	–	inconclusive [activator, single point]
